Assay results: article PMC4336329 (PLoS ONE, 2015)
Hit rate of the full screen: of about 310,000 compounds, about 2,200 (0.71%) showed an effect of 50% or more. The effect is printed as a negative number. This is one part of the list.

These compounds were tested against human ether-à-go-go-related gene (hERG) potassium channel (human, UniProt Q12809) (assay: primary screen, population patch clamp on CHO cells stably expressing hERG).
Sequence of human ether-à-go-go-related gene (hERG) potassium channel (Q12809 whole entry, looked up): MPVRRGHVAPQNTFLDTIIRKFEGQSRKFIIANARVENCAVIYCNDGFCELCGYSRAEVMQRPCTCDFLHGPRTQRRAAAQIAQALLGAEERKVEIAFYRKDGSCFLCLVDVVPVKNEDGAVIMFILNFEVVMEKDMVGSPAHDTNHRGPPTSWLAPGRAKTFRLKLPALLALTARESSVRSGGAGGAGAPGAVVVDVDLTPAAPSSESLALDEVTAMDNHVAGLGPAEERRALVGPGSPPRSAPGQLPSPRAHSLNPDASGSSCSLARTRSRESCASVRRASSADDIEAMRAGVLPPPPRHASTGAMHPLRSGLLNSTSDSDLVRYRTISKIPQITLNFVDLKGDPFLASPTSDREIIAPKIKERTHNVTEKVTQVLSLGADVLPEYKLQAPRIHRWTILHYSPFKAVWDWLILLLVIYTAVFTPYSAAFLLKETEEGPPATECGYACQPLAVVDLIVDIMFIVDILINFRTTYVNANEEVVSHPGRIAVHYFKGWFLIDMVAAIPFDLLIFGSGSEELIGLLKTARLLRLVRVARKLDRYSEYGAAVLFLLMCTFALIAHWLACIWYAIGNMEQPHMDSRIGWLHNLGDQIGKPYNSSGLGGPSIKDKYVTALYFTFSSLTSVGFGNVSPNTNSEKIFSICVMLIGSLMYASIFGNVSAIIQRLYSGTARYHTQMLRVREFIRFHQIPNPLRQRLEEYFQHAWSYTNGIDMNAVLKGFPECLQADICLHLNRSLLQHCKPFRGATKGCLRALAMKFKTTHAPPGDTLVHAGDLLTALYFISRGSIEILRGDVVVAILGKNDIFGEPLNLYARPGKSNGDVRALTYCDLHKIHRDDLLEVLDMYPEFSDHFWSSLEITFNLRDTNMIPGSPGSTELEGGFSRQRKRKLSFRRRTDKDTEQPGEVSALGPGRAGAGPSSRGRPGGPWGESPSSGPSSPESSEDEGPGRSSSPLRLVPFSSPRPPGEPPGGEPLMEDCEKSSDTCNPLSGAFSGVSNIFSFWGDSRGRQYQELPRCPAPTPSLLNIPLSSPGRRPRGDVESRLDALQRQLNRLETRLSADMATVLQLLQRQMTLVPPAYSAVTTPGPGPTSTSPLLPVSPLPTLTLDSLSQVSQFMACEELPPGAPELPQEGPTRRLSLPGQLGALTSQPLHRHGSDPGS

Row | Compound | hERG current change (%, negative = inhibition) at 1uM
1 | COc1ccc(-c2csc3ncnc(N4CCN(S(=O)(=O)c5ccc(C(C)=O)cc5)CC4)c23)cc1 | -9.22%
2 | CC(C)c1ccc2c(c1)CCC1C(C)(CN)CCCC21C.O=C(O)c1ccccc1 (stereo not drawn) | 6.01%
3 | Cc1oc(-c2ccccc2F)nc1CS(=O)(=O)CC(=O)N1CCc2ccccc21 | 12.4%
4 | CCSc1nnc(N2C(=O)c3ccc(C(=O)c4ccc(C(=O)O)cc4)cc3C2=O)s1 | 10.9%
5 | COc1ccc(NC(=O)c2cc3c(CO)cnc(C)c3oc2=Nc2cccc(F)c2)c(OC)c1 | 12.8%
6 | CCOC(=O)c1c(CN(CC)CC)oc2ccc(OC)cc12 | -25.8%
7 | O=C(COC(=O)CNS(=O)(=O)c1c(Cl)cccc1Cl)Nc1cccnc1Cl | 1.04%
8 | CC1CCc2[nH]c3ccc(C(=O)Nc4ccc(C(=O)N(C)C)cc4)cc3c2C1 (stereo not drawn) | 20.4%
9 | Cc1cc(=O)oc2cc(OC(C)C(=O)NC3CCN(Cc4ccccc4)CC3)ccc12 (stereo not drawn) | -52.6%
10 | CC1CCN(CCCCOc2ccc(C(C)(C)C)cc2)CC1.O=C(O)C(=O)O | -3.74%
11 | COc1ccc(NC(=O)CSc2c3c(nc4ccccc24)CCCC3)c(OC)c1 | 5.62%
12 | O=C(CCc1nnc(-c2ccccc2)o1)NCc1c(F)cccc1F | 10%
13 | COc1ccc(C(CC(=O)N2CCCC2)c2ccc(F)cc2)cc1 (stereo not drawn) | 7.68%
14 | Cc1ccc(NS(=O)(=O)c2ccc(C(=O)OCC(=O)NCC3CCCO3)cc2)cc1 (stereo not drawn) | 10.7%
15 | COc1ccc(NC(=O)c2cc3n(n2)C(C(F)(F)F)CC(c2ccco2)N3)cc1 (stereo not drawn) | 8.02%
16 | CC1CCN(S(=O)(=O)c2ccc3c(c2)N(CC(=O)NCc2cccnc2)C(=O)CS3)CC1 | 2.67%
17 | CCOC(=O)CC1C(=O)NCCN1C(=O)c1c(F)cccc1F (stereo not drawn) | 8.2%
18 | N=c1c2c3c(sc2ncn1CCN1CCOCC1)CCCCC3 | -4.43%
19 | Cc1cccc(OC(C)C(=O)N(Cc2cccs2)C2CCS(=O)(=O)C2)c1C (stereo not drawn) | 18.6%
20 | O=C(C1CCCC1)N1CCN(S(=O)(=O)c2ccc(F)cc2)CC1 | 12.5%
21 | COc1ccc(CCNC(=O)c2cc(-c3ccc4c(c3)OCO4)on2)cc1OC | -5.64%
22 | Cc1ccc2cc(/C=N/NC(=O)CN3CCCCC3)c(Cl)nc2c1 | 2.13%

Row | Compound | hERG current change (%, negative = inhibition) at 1uM
23 | COc1ccc(CNCc2ccc([N+](=O)[O-])cc2)cc1OC.O=C(O)C(=O)O | 0.367%
24 | COCCNc1c2c(nc3ccccc13)CCC2.Cl | -41.5%
25 | Cc1nc2scc(C)n2c(=O)c1S(=O)(=O)NCc1ccccc1 | 12.1%
26 | O=C(Nc1nc2ccccc2n1CCN1CCOCC1)c1cn(-c2ccccc2)nc1-c1ccccc1 | 11.4%
27 | CN(CCCNC(=O)c1ccc(N2CCCC2=O)cc1)c1ccccc1 | 3.05%
28 | CCOC(=O)C(=O)c1csc(NC(=O)CCSc2ccc(C)cc2)n1 | 13%
29 | CC1CC(C)CN(C(=O)C2CCC(CNS(=O)(=O)c3ccccc3)CC2)C1 (stereo not drawn) | 8.93%
30 | Cc1ccc(NC(=O)CSc2n[nH]c(=O)n2C2CC2)cc1S(=O)(=O)N1CCOCC1 | 12.4%
31 | CC(C)Oc1ccc(/C(O)=C2/C(=O)C(=O)N(CCN3CCNCC3)C2c2cccc([N+](=O)[O-])c2)cc1 (stereo not drawn) | 14%
32 | O/N=C/c1nc2cc(Cl)ccc2o1 | 10.2%
33 | CCOc1c(Cl)cc(C(=O)Nc2ccccc2C(=O)O)cc1Cl | 28.5%
34 | O=C(CSc1ccc(Cl)cc1)Nc1ccc(N2CCN(C(=O)c3ccco3)CC2)cc1 | 8.45%
35 | O=C(CSc1nnc(COc2ccccc2)o1)NC1CC2CCC1C2 (stereo not drawn) | 14.8%
36 | CC(C)N(CCNS(=O)(=O)c1ccc(Cl)cc1)C(C)C.Cl | -4.62%
37 | Cc1c(Cl)cn2c(=O)cc(CN3CCN(c4ccc(F)cc4)CC3)nc2c1Cl | -30%
38 | O=C(Nc1ccc(S(=O)(=O)N2CCOCC2)cc1)c1cccc(Br)c1 | 7.5%
39 | COc1cccc(N=C2SC(C(=O)Nc3ccccc3F)CC(=O)N2C)c1 (stereo not drawn) | 7.25%
40 | COc1ccc([N+](=O)[O-])cc1NC(=O)C(C)OC(=O)Cn1[nH]c(=O)c2ccccc2c1=O (stereo not drawn) | 6.84%
41 | Cc1ccc(C)c(OCCCNCc2ccccc2)c1.O=C(O)C(=O)O | 5.9%
42 | Cc1[nH]c(=O)c(C#N)c(C)c1[N+](=O)[O-] | -0.0181%
43 | C=CCN(c1ccc(Br)cc1C(=O)OC)S(C)(=O)=O | 10%
44 | CC(C)N(C(=O)c1ccc(C(=O)Nc2ccc([N+](=O)[O-])cc2)cc1)C(C)C | 9.51%

Row | Compound | hERG current change (%, negative = inhibition) at 1uM
45 | CCn1cc(C(=O)O)c(=O)c2cnc(N3CCN(C(=S)NC(=O)c4ccc(F)c(F)c4)CC3)nc21 | 13%
46 | N#CC1=C(C=Nc2ccccc2O)CCC1 | 10.1%
47 | CCCCOc1c(Cl)cc(C(=O)N(C)CC(=O)Nc2ccc(N3CCOCC3)cc2)cc1OCC | 9.76%
48 | COC(=O)N/N=C/c1ccccc1OCc1ccccc1 | 12.4%
49 | CCOc1ccc(OC(=O)c2cccnc2)cc1 | 11.8%
50 | COc1cc(C(=O)OCC(=O)NCCCc2ccccc2)ccc1OCC(C)C | 19.7%
51 | CC(C)NC(=O)CSc1ccccc1C(=O)N1CCN(S(=O)(=O)/C=C/c2ccccc2)CC1 | 1.89%
52 | CC1=CC(C2CC(=O)N(c3ccccc3C)C2=O)CC2C(=O)N(c3ccccc3C)C(=O)C12 (stereo not drawn) | 10.8%
53 | COc1ccccc1N1CCN(c2ncnc3c2oc2ccccc23)CC1 | 15%
54 | COc1ccccc1NC(=O)C1=C(C)Nc2nc(-c3ccccc3)nn2C1c1ccccn1 (stereo not drawn) | 1.46%
55 | Cc1noc(C)c1CSCc1ccc(Cl)cc1 | 31.8%
56 | Cc1[nH]nc2c1-c1nc3ccccc3nc1C(C)(C)C2 | 7.07%
57 | CC(OC(=O)Cn1[nH]c(=O)c2ccccc2c1=O)C(=O)NC1(C#N)CCCCC1 (stereo not drawn) | 22.2%
58 | COc1cc(C(=O)OCC(=O)NC2CCCC2)cc(OC)c1OC | 17.9%
59 | CC(=O)Oc1ccc([C@@H]2COc3c(ccc4c3C=CC(C)(C)O4)C2)c(OC(C)=O)c1 | 15.1%
60 | NC(=O)N/N=C/c1cccc(C(F)(F)F)c1 | 8.76%
61 | O=C(COC(=O)c1ccc2ncsc2c1)Nc1ncc(Cl)cc1Cl | 5.17%
62 | CCNC(=O)/C(C#N)=C/c1c(N(Cc2ccccc2)Cc2ccccc2)nc2ccccn2c1=O | -11.9%
63 | CCc1ccc(/C=C\C(=O)N2CCCC2)cc1 | 6.1%
64 | COc1ccccc1NC(=O)Cc1csc(N)n1 | 13.9%
65 | O=C(Oc1ccc2ccccc2c1Br)N1CCCCCC1 | 8.05%
66 | CCOC(=O)c1ccc[n+](CC(=O)c2ccc(NC(=O)c3ccccc3)cc2)c1.[Br-] | 2.86%

Row | Compound | hERG current change (%, negative = inhibition) at 1uM
67 | O=C(CCCn1c(=O)oc2ccccc21)N1CCN(c2ccccn2)CC1 | -9.08%
68 | Cc1nc2c(n1O)CCC/C2=N\O | 8.48%
69 | CN(/N=C/c1ccc([N+](=O)[O-])o1)c1ccccc1 | 10.4%
70 | O=C1c2c(O)cccc2Cc2cccc(O)c21 | 8.11%
71 | Cc1cccc(CS(=O)(=O)c2cn(CC(=O)N3CCOCC3)c3ccccc23)c1 | 11.9%
72 | O=C(c1ccc2c3c(cccc13)C(=O)N(O)C2=O)N1CCCCC1 | 8.18%
73 | COc1ccc(CC(=O)NCc2ccccc2)cc1OC | 11.6%
74 | CCN1C(=O)C(CC(=O)Nc2ccccc2)N(Cc2ccccn2)C1=S (stereo not drawn) | -2.13%
75 | O=C(CSc1nc2ccccc2o1)N1CCOCC1 | 12.5%
76 | Cc1c(Cl)cccc1NC(=O)Cn1c(-c2ccc(F)cc2)noc1=O | 22.2%
77 | CC(OC(=O)c1ccc(Cl)cc1)C(=O)NCC1CCCCC1 (stereo not drawn) | 7.04%
78 | O=C1NC(c2cccnc2)C(C(=O)c2cccs2)C(O)(C(F)(F)F)N1 (stereo not drawn) | -14.6%
79 | Cl.O=C(O)c1ccc(CNCc2c(Cl)cccc2Cl)cc1 | -2.86%
80 | Cc1cccc(C)c1NC(=O)CC1SC2=NCCN2C1=O (stereo not drawn) | 10.4%
81 | O=C(Nc1ccccc1Cc1ccccc1)c1ccc2c(c1)SC1=NS(=O)(=O)CCN12 | 0.207%
82 | COc1cc2c(cc1NC(=O)c1ccc(C(C)(C)C)cc1)CCCC2 | 2.82%
83 | O=C(CCC(=O)N1CCOc2ccccc21)NCc1ccccn1 | 14.8%
84 | Cc1ccc(S(=O)(=O)N2CCCN(C(=O)c3cc4ccccc4[nH]3)CC2)cc1 | 3.06%
85 | COc1ccc(NC(=O)CCN2C(=O)c3ccccc3C2=O)cc1 | 16.8%
86 | COc1cccc(N2CCN(C(=O)CCSCc3ccccc3F)CC2)c1 | -9.59%
87 | Cc1nnc(SCC(=O)Nc2ncc(Cc3ccc(F)cc3)s2)n1N | 8.14%
